Where “and” joins values, the source holds several entries; their conditions need not be identical. Equal values may be shown once. The full ranking holds about 2,900 compounds; the median of “NF-kB SEAP reporter activity, fold change vs agonist alone” is about 0.99, and the highest 2% start at about 2.6. Some of the results follow.
Columns and labels:
RAW-Dual [1] = assay: NF-kB SEAP reporter activity, fold change vs agonist alone; cytotoxicity flag (confluency mask): not cytotoxic; higher = enhanced NF-kB activity
How it was run: (§1)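 Cytotoxic wells were those whose IncuCyte confluency was below 70% of agonist controls in both mask sets. The cells were RAW-Dual macrophages at 50,000 cells/well in DMEM on 384-well plates, dosed with 50 nL of library stock by pin tool, stimulated with a PRR agonist 1 h later, and kept at 37 °C, 5% CO2 for 20 hours. IRF and NF-κB reporter activity, as fold change over agonist-alone wells, came from supernatant read by QuantiLuc luminescence and QuantiBlue absorbance, respectively.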

RAW-Dual [2] = assay: NF-kB SEAP reporter activity, fold change vs agonist alone; higher = enhanced NF-kB activity; settings: library stock concentration (final ~1000-fold dilution): 10 mM
How it was run: as §1

RAW-Dual [3] = assay: NF-kB SEAP reporter activity, fold change vs agonist alone; cytotoxicity flag (confluency mask): cytotoxic (confluency <70% of control); higher = enhanced NF-kB activity
How it was run: as §1

[4] = agonist: ODN 1826 (TLR9) 0.5 ug/mL
[5] = agonist: Pam2CSK4 (TLR2/6) 0.1 ug/mL
[6] = agonist: Pam3CSK4 (TLR2/1) 0.1 ug/mL
[7] = cytotoxicity flag (confluency mask): cytotoxic (confluency <70% of control), agonist: Imiquimod (TLR7) […]
[8] = cytotoxicity flag (confluency mask): cytotoxic (confluency <70% of control), agonist: MPLA (TLR4) […]
[9] = cytotoxicity flag (confluency mask): not cytotoxic, agonist: Imiquimod (TLR7) […]
[10] = cytotoxicity flag (confluency mask): not cytotoxic, agonist: MPLA (TLR4) […]

CN1CCc2cc3c(cc2C(=O)Cc2ccc4c(c2C1)OCO4)OCO3 (library stock concentration (final ~1000-fold dilution): 10 mM)
NF-kB SEAP reporter activity (RAW-Dual [1]; agonist: LPS (TLR4) 0.1 ug/mL): 0.908 and 0.875
NF-kB SEAP reporter activity (RAW-Dual [1]; [4]): 1.01 and 0.566
NF-kB SEAP reporter activity (RAW-Dual [1]; [5]): 1.02 and 0.937
NF-kB SEAP reporter activity (RAW-Dual [1]; [6]): 0.925 and 0.685

C=CC(=O)Nc1cc(C)ccc1Nc1nc(Nc2cc(OC)ncc2C)ncc1C(F)(F)F
NF-kB SEAP reporter activity (RAW-Dual [2]; [7]): 0.135
NF-kB SEAP reporter activity (RAW-Dual [2]; [8]): 0.269

C=CC(=O)Nc1cc(C)ccc1Nc1nc(Nc2cc(OC)ncc2C)ncc1C(F)(F)F (library stock concentration (final ~1000-fold dilution): 10 mM)
NF-kB SEAP reporter activity (RAW-Dual [3]; agonist: LPS (TLR4) 0.1 ug/mL): 0.389
NF-kB SEAP reporter activity (RAW-Dual [3]; [4]): 0.177
NF-kB SEAP reporter activity (RAW-Dual [3]; [5]): 0.0907
NF-kB SEAP reporter activity (RAW-Dual [3]; [6]): 0.134

Cc1cc2c(F)c(Oc3ncnn4cc(OCC(C)O)c(C)c34)ccc2[nH]1 (configuration not stated) (library stock concentration (final ~1000-fold dilution): 10 mM)
NF-kB SEAP reporter activity (RAW-Dual [1]; agonist: LPS (TLR4) 0.1 ug/mL): 1.8
NF-kB SEAP reporter activity (RAW-Dual [1]; [4]): 0.986
NF-kB SEAP reporter activity (RAW-Dual [1]; [5]): 0.77
NF-kB SEAP reporter activity (RAW-Dual [1]; [6]): 1.18

Cc1cc2c(F)c(Oc3ncnn4cc(OCC(C)O)c(C)c34)ccc2[nH]1 (configuration not stated)
NF-kB SEAP reporter activity (RAW-Dual [2]; [9]): 2.01
NF-kB SEAP reporter activity (RAW-Dual [2]; [10]): 1.39

CC1(C)CC(=O)c2c(C(F)(F)F)nn(-c3ccc(C(N)=O)c(NC4CCC(OC(=O)CN)CC4)c3)c2C1 (configuration not stated) (library stock concentration (final ~1000-fold dilution): 10 mM)
NF-kB SEAP reporter activity (RAW-Dual [1]; agonist: LPS (TLR4) 0.1 ug/mL): 0.226
NF-kB SEAP reporter activity (RAW-Dual [1]; [4]): 0.929
NF-kB SEAP reporter activity (RAW-Dual [1]; [5]): 0.113
NF-kB SEAP reporter activity (RAW-Dual [1]; [6]): 0.234

CC1(C)CC(=O)c2c(C(F)(F)F)nn(-c3ccc(C(N)=O)c(NC4CCC(OC(=O)CN)CC4)c3)c2C1 (configuration not stated)
NF-kB SEAP reporter activity (RAW-Dual [2]; [9]): 0.916
NF-kB SEAP reporter activity (RAW-Dual [2]; [10]): 0.907

CC(NC(=O)/C(C#N)=C/c1cccc(Br)n1)c1ccccc1 (configuration not stated) (library stock concentration (final ~1000-fold dilution): 10 mM)
NF-kB SEAP reporter activity (RAW-Dual [3]; agonist: LPS (TLR4) 0.1 ug/mL): 0.233
NF-kB SEAP reporter activity (RAW-Dual [3]; [4]): 0.186
NF-kB SEAP reporter activity (RAW-Dual [3]; [5]): 0.0992
NF-kB SEAP reporter activity (RAW-Dual [3]; [6]): 0.136

CC(NC(=O)/C(C#N)=C/c1cccc(Br)n1)c1ccccc1 (configuration not stated)
NF-kB SEAP reporter activity (RAW-Dual [2]; [7]): 0.268
NF-kB SEAP reporter activity (RAW-Dual [2]; [8]): 0.204

CCN(CC)CCNC(=O)c1cc(S(C)(=O)=O)ccc1OC.Cl (library stock concentration (final ~1000-fold dilution): 10 mM)
NF-kB SEAP reporter activity (RAW-Dual [1]; agonist: LPS (TLR4) 0.1 ug/mL): 1.26
NF-kB SEAP reporter activity (RAW-Dual [1]; [4]): 0.906
NF-kB SEAP reporter activity (RAW-Dual [1]; [5]): 1.08
NF-kB SEAP reporter activity (RAW-Dual [1]; [6]): 0.986

CCN(CC)CCNC(=O)c1cc(S(C)(=O)=O)ccc1OC.Cl
NF-kB SEAP reporter activity (RAW-Dual [2]; [9]): 0.937
NF-kB SEAP reporter activity (RAW-Dual [2]; [10]): 1.08

CC(C)CNc1ccnc(NCc2csc(-c3ccccc3)n2)n1.Cl
NF-kB SEAP reporter activity (RAW-Dual [2]; [7]): 1.85
NF-kB SEAP reporter activity (RAW-Dual [2]; [8]): 1.47

CC(C)CNc1ccnc(NCc2csc(-c3ccccc3)n2)n1.Cl (library stock concentration (final ~1000-fold dilution): 10 mM)
NF-kB SEAP reporter activity (RAW-Dual [3]; agonist: LPS (TLR4) 0.1 ug/mL): 1.62
NF-kB SEAP reporter activity (RAW-Dual [3]; [4]): 0.221
NF-kB SEAP reporter activity (RAW-Dual [3]; [5]): 0.625
NF-kB SEAP reporter activity (RAW-Dual [3]; [6]): 0.446

Cl.Clc1ccc(CCCOCCCN2CCCCC2)cc1 (library stock concentration (final ~1000-fold dilution): 10 mM)
NF-kB SEAP reporter activity (RAW-Dual [1]; agonist: LPS (TLR4) 0.1 ug/mL): 0.95
NF-kB SEAP reporter activity (RAW-Dual [1]; [4]): 0.796
NF-kB SEAP reporter activity (RAW-Dual [1]; [5]): 1.01
NF-kB SEAP reporter activity (RAW-Dual [1]; [6]): 0.795

Cl.Clc1ccc(CCCOCCCN2CCCCC2)cc1
NF-kB SEAP reporter activity (RAW-Dual [2]; [9]): 0.898
NF-kB SEAP reporter activity (RAW-Dual [2]; [10]): 1.07

COc1ccc(-c2cc(=O)c3c(O)cc(O)cc3o2)cc1O (library stock concentration (final ~1000-fold dilution): 10 mM)
NF-kB SEAP reporter activity (RAW-Dual [1]; agonist: LPS (TLR4) 0.1 ug/mL): 1.59
NF-kB SEAP reporter activity (RAW-Dual [1]; [4]): 1.32
NF-kB SEAP reporter activity (RAW-Dual [1]; [5]): 1.23
NF-kB SEAP reporter activity (RAW-Dual [1]; [6]): 1.2

COc1ccc(-c2cc(=O)c3c(O)cc(O)cc3o2)cc1O
NF-kB SEAP reporter activity (RAW-Dual [2]; [9]): 2.16
NF-kB SEAP reporter activity (RAW-Dual [2]; [10]): 1.32

From the supplement of paper PMC10037445
